The values that follow come from article PMC12136788.

Some of the results follow.

First the molecules themselves.
T1: UNK ZnF1-3 (human, UniProt Q9C0B0 31-174)
T1 sequence: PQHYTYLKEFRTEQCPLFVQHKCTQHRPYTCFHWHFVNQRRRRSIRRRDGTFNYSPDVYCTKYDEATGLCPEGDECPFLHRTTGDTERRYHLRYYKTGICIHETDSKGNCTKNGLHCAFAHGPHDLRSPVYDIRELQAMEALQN

B1: chr1:76259871:76259872:+_ENSG00000137955_ENST00000319942|hu_mus|FALSE|FALSE (ssRNA)
RNA: GGGAGUUCUACAGUCCGACGAUCAUCCACCAUAUCUCCUGGUCUGUCUGCAAAUCCUCCCGUCUCUUCAUCUUGACACGCUAAGAUGAAACUUCGAAGCUUUUCUCUGUCAAUCCAAUGAAGUCUCCCGAUGAUCUUUAGGGACAACAGAGGAUUGAGCAUCA
B2: 90017295_90017415_685_3pUTR_ENSMUSG00000057706_ENSMUST00000082237|mouse|control|control (ssRNA)
RNA: GGGAGUUCUACAGUCCGACGAUCUGGAGAAGUGCUCUGCGGCAGAGAUGAUCUCCCUCCGAGCCAUAGCCACAUCCUCCUUCCUGCCCGUCACAACAAAGACAGGCUCCUCCCCGCGAACUGGGGUCUUGAUGUAAGUGUUGGCAACAGAGGAUUGAGCAUCA
B3: chr15:30001172:30001173:-_ENSG00000104067_ENST00000400011|hu_hu|motif|central (ssRNA)
RNA: GGGAGUUCUACAGUCCGACGAUCUGGUGGUCUGAAAGUUGCUGGCUUAUUCUGAGAUGGAGGUGGGUCUGGUUUGGACACGGAGGAAUUCUGAAAAUCCAAUGACACUGAAUUACCUUCACCAUGUGCUCCCUUAGAAUGUAUCAACAGAGGAUUGAGCAUCA
B4: chrX:102632674:102632675:+_ENSG00000166681_ENST00000361298|hu_hu|motif|central (ssRNA)
RNA: GGGAGUUCUACAGUCCGACGAUCGUGAUUAGAGAGCUCCCCCAUAAGGAUACGCAGACAAUUCCUCAACUGCAGCUCCCGGAGUUUUCUUCUGAUUUCUCUCAUCUCCUCCAUGAAUAUUUCCAUAUCAUCUCCAUCUCCACCCAACAGAGGAUUGAGCAUCA
B5: 11075323_11076074_1219_3pUTR_ENSG00000106443_ENST00000423760|human|control|control (ssRNA)
RNA: GGGAGUUCUACAGUCCGACGAUCAUACUGCUGAAGCCGGGCAUUGAUCCUUGCCUGUGCUUCUGGUGAUAGUUGCUUCUCUCUCUCUUGCAAAGACAUUUUACAAUAGGACUGUAGAGCCAAGUAGUUUUUUCUCUUCCACUUCAACAGAGGAUUGAGCAUCA
B6: 242283235_242285623_964_CDS_ENSG00000168385_ENST00000391971|human|control|control (ssRNA)
RNA: GGGAGUUCUACAGUCCGACGAUCAUGAAGGUCCUGGGUCACCUCCUGGAGAUCCUGCAUGUGGGUGAUGAGCAUGGUUCUCAGCUUCAGAAAGUCAUUGUGCUCUGGGUUCUCCACUUCCACAACACCCCAGGGGUAGAGGCGCAACAGAGGAUUGAGCAUCA
B7: 41533178_41533298_89_5pUTR_ENSMUSG00000061080_ENSMUST00000099761|mouse|control|control (ssRNA)
RNA: GGGAGUUCUACAGUCCGACGAUCCAUCAAAUCCAAGCAGGAGUCGGGGAGAAAGUGGAGGAACAAAUUUUCCGAAGGAAGAGUGCAAAUAUAAAAUGCUUUAAUGAUGAGGAGGCGACUGUCAAUGGCAGGGGUGCUUCCUUACAACAGAGGAUUGAGCAUCA
B8: chr5:132270174:132270175:-_ENSG00000072364_ENST00000265343|hu_mus|FALSE|FALSE (ssRNA)
RNA: GGGAGUUCUACAGUCCGACGAUCAGAAUCCCAGUUGGCAUCAGGGUCCCGAGGUGAUUUGGAGCGCUGAUGUUCCUUGCUAUGGUGAUCAUUCCCAUGAGACCUGGAAUGACUAGAACUUAAUGAAGAAACAGCCUGGGGUUUCAACAGAGGAUUGAGCAUCA
B9: chr1:220369670:220369671:-_ENSG00000118873_ENST00000358951|hu_hu|motif|central (ssRNA)
RNA: GGGAGUUCUACAGUCCGACGAUCGAAGCCAGUAAAUGGAUUGGACCCUACAGUGAUAUACUGAGACAUGGCAGGUGGACGGUUUUUAAUUGCUGCAUUAAAUCCACCUAUAUUGGAGGCAGUCUUCAUUUGAUCAAAGGGGGACAACAGAGGAUUGAGCAUCA
B10: chr6:83912004:83912005:+_ENSMUSG00000030016_ENSMUST00000032088|mus_mus|motif|central (ssRNA)
RNA: GGGAGUUCUACAGUCCGACGAUCUAAGUUGUAAAUUUCUUCUGUAGAAUAUCCUUUGUUAGGCAAAUUAGAAAUAAAUACGGCACUCAUUUCCUCCGAUUCCUUGUUCACUGGUUCCUUUUCUGUGGCCUCCAAAGUACCUGACAACAGAGGAUUGAGCAUCA
B11: chr15:40462788:40462789:+_ENSG00000156970_ENST00000287598|hu_hu|motif|central (ssRNA)
RNA: GGGAGUUCUACAGUCCGACGAUCAAAUCGAGGAUCACUAUAAUAUCGUUUUUCUCCUUGUAGUGCUUCUACAGCUCUUUCGGAUAACGUUGACAUAUUACUCUCCUUCCCACCUUGAGGAUAGUUCUGCUCUGUCCAGCUGAUCAACAGAGGAUUGAGCAUCA
B12: 26115837_26116139_1780_CDS_ENSMUSG00000045039_ENSMUST00000128119|mouse|control|control (ssRNA)
RNA: GGGAGUUCUACAGUCCGACGAUCCGGGGCAAGCUCAGCCCCUGACACCCACUGGUGGCAGCCAAGGUGGUAGAAGAAGAUGCCAUCUUCGUAACACUUUUCCUCCUGGUAAUGCGUAUGCACAUUGCCCCCAUAGACCACCAUCAACAGAGGAUUGAGCAUCA
B13: chr3:9412954:9412955:+_ENSG00000134077_ENST00000452837|hu_mus|hu_hu_hu_mus_False|18_48 (ssRNA)
RNA: GGGAGUUCUACAGUCCGACGAUCGGUUGAUAUCUCUUCUUUGAUGGCUGGAUUUUCAUAAUAGUCCAAGAUAUGUGAAUCUGAAGUAUGGCUAGUGUGCUUUUUCUUACCAUCUUUCUGAUCGAUUUUGUCUCCUUGUCCACACAACAGAGGAUUGAGCAUCA
B14: chr5:143667385:143667386:-_ENSMUSG00000029580_ENSMUST00000171419|mus_mus|FALSE|FALSE (ssRNA)
RNA: GGGAGUUCUACAGUCCGACGAUCCGACCAGCGCAGCGAUAUCGUCAUCCAUGGCGAACUAUCAAGACACAAAAGAAGGCUAUAGUCACCUCGGGGCCGCCAAGAGCAGCCGCUGCCGCCCUGCCCACUUCCGGCAAGCCGCGGCAACAGAGGAUUGAGCAUCA
B15: 71576759_71576879_1049_CDS_ENSG00000075292_ENST00000264447|human|control|control (ssRNA)
RNA: GGGAGUUCUACAGUCCGACGAUCAACAGGAAACAUAGAAUUACAUAUCACAUUUGGAUUGGGAACAGAUGCAGAAAUGUUCUGCUGUGACUGAAAUUCAUUCUCGACCUCAUCAGUUGGAAUUUCAGGAUCAUAAAUACGUACCAACAGAGGAUUGAGCAUCA
B16: chr17:65740002:65740003:+_ENSG00000130935_ENST00000581375|hu_hu|hu_hu_hu_mus_False|8_108 (ssRNA)
RNA: GGGAGUUCUACAGUCCGACGAUCAACCCGUUCUUGCUCCCUGGACGAACAGGAAGAUUCAUAUUAAAAAAAAUAUAUAUCCAUCAAGUUAGGUGUGGUGGCCACACCUUUACUCCCAGCACUUUGGGAAUAUAAUCUCUGAGUCAACAGAGGAUUGAGCAUCA
B17: chr2:91389038:91389039:+_ENSMUSG00000040549_ENSMUST00000099716|mus_mus|FALSE|FALSE (ssRNA)
RNA: GGGAGUUCUACAGUCCGACGAUCUAGUCCUUUCAAUUGAACCACUGCAUUGGAAUCAGUGACAAAUUUUUUGAUUAAUCCUAAGUAUUUGGACCAUUCUGGACUCUUUUCAUCCUUUAUUUUCUGGAAGAUCUUCAAGGCUUCCAACAGAGGAUUGAGCAUCA
B18: chr11:87793471:87793472:-_ENSMUSG00000020483_ENSMUST00000020775|mus_mus|mus_mus_mus_hu_False|28_68 (ssRNA)
RNA: GGGAGUUCUACAGUCCGACGAUCUGGACUUGAAAAUAAAAGAAUAAGCUGGAUCCCCCACCCCCCCACAGUGUCAACCCUACACGAGAGUUUUGAAGGCGACUCAUGAAUCAGCAGAGCUCAAACGGCAAUGACCACCCCACCCAACAGAGGAUUGAGCAUCA
B19: chr1:178664722:178664723:-_ENSMUSG00000057335_ENSMUST00000057037|mus_hu|motif|central (ssRNA)
RNA: GGGAGUUCUACAGUCCGACGAUCAGGCCUUUGUCGUCGUCUUGCAGGGUCCUUAUAAAUGUGUAAGACAGACAGCAUUUACGGUUGAGUCCUACAGGGAAACACACAGAAGCAAUUCAUUGCUUGGGAGUGAAACUAUCAACUCAACAGAGGAUUGAGCAUCA
B20: chr15:83699029:83699030:-_ENSG00000064726_ENST00000261721|hu_hu|FALSE|FALSE (ssRNA)
RNA: GGGAGUUCUACAGUCCGACGAUCGCAUCUUGGUCGGUCAAUGUAUUCAACUCGGGGUUUAGGGUUGACAGUAAAAUGAAGAAAGAGGUUUACCACUUCACGAUCUGACAAAAUUCCAGAUUGAGCAGGACCUGCUGCAAAUUCCAACAGAGGAUUGAGCAUCA
B21: chr12:42180722:42180723:-_ENSMUSG00000036295_ENSMUST00000043884|mus_hu|mus_mus_mus_hu_True|48_68 (ssRNA)
RNA: GGGAGUUCUACAGUCCGACGAUCCUGUAGGAGAAGAAUCUGUGUGUUAGCUGGCAAUCUGGCUGGGAAGUUUAAAAGACCUAAAUCAUUACAGUCCACUGUAGAUGCUUCCAUAUAAAUGGAUCUGGGUGUAAACCAAGGCCUCAACAGAGGAUUGAGCAUCA
B22: chr2:202488911:202488912:-_ENSG00000155755_ENST00000286196|hu_mus|hu_hu_hu_mus_False|48_108 (ssRNA)
RNA: GGGAGUUCUACAGUCCGACGAUCAUUUAACAUUUUUUCAUAAUCUCCAGUAGCAUUUCAGCAUUAUGUAACAAAAGCUCAAUUGUAAAUACACAUGUCUUAUAAAAAUACACUUAAAAACACGAGUGGGGAGCGCAGGCGCCACAACAGAGGAUUGAGCAUCA

For the experiment, the target named is T1, UNK ZnF1-3. The experiment is described as follows: nsRBNS (natural sequence RNA bind-n-seq); RBNS binding buffer (assumed for nsRBNS): 25 mM Tris pH 7.5, 150 mM KCl, 3 mM MgCl2, 0.01% Triton X-100, 500 ug/ml BSA, 20 U/ml SUPERase-In, 4 C; UNK is unkempt and MSI1 is Musashi-1; names of the RNAs are library labels; protein concentration not given here; high values mean tight binding.
Take B1: the binding signal was determined as 0.972 enrichment R. The result for B2 reads 0.89 enrichment R; that for B3, 1.02 enrichment R; that for B4, 1.02 enrichment R. Molecule B5 yielded a binding signal of 0.568 enrichment R. The result for B6 reads 0.746 enrichment R; that for B7, 2.66 enrichment R. The result for B8 reads 0.67 enrichment R. The result for B9 reads 1.64 enrichment R; that for B10, 1.05 enrichment R.

In the case of B11, the binding signal worked out at 0.664 enrichment R. The result for B12 reads 0.854 enrichment R.

Regarding B13, the binding signal turned out to be 0.4 enrichment R. Turning to B14, the binding signal worked out at 0.726 enrichment R. The result for B15 reads 0.894 enrichment R; that for B16, 1.07 enrichment R; that for B17, 0.865 enrichment R. B18: the binding signal was 1.9 enrichment R. The result for B19 reads 0.925 enrichment R. On to B20, for which the binding signal is 1.8 enrichment R. Take B21: the binding signal was 1.36 enrichment R. The result for B22 reads 1.07 enrichment R.
